In the supplement of paper PMC10338343:
± gives the standard deviation. Only a part is listed here, and it is no random draw.

Tested on: MIWI (PIWIL1) piRISC loaded with piRNA #1 (30 nt)
Test: pre-steady-state target cleavage rate (min^-1); MIWI and MILI are mouse PIWI proteins and EfPiwi is from a freshwater sponge; tags in brackets are library labels; higher = faster piRNA-guided slicing of the target
Details: guide: piRNA #1 5'p-UGAGGUAGUAGGUUGUAUAGUAUCCAGAGG; auxiliary factor: 500 nM mouse GTSF1
Procedure, shortened: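 Active affinity-purified piRISC (1 nM) loaded with one synthetic guide was mixed with a transcribed, DNA-blocked target RNA library (0.1 nM), with or without 500 nM GTSF1 partner protein, in HEPES–potassium acetate buffer at 33 °C for 0–8 or 0–960 min. Uncleaved targets were sequenced, normalised to depth and to weakly complementary targets, and pooled across three trials, with k3 capped at 0.0001 min^-1. The pre-steady-state cleavage rate was determined with a burst-and-steady-state fit.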

| Sequence | pre-steady-state target cleavage rate |
| --- | --- |
| GGAGACCUAUCUAUAGAAGCUACUACCUCA | 0.175 ± 0.024 |
| GGAGACCUAACAAUACAACCUACUACGUCA | 0.0842 ± 0.032 |
| GGAGACCUAUCUAUACAACCUACUUGGUCA | 0.0045 ± 0.0026 |
| GGAGACCUAACUAUUCAACCUACUAGCUCA | 0.152 ± 0.027 |
| GGUCUGGAUUCUAUACAACCUACAACCUCA | 0.497 ± 0.046 |
| GGACUGCAUAGUAUACAACCUACUACCUCA | 0.942 ± 0.11 |
| GGAGACCAUACUAUGCAACCUACUACCUCA | 1.67 ± 0.1 |
| GGAGACCAUAGUAUUCAACCUACUACCUCA | 0.089 ± 0.017 |
| GGAGAGGAUUCUAAACAACCUACUACCUCA | 0.742 ± 0.042 |
| GGAGACCUAUGGAUACAACCUACUACCUCA | 0.0817 ± 0.012 |
| GGAGACGUUACUAUACAACCUACUACCACA | 1.12 ± 0.088 |
| GGUCUGGGUACUAUACAACCUACUACCUCA | 1.78 ± 0.12 |
| GCUCUGGAUACUAAACAAGCUACUACCUCA | 1.23 ± 0.069 |
| GGAGACCUAUCUAUACAACCUACUACGCUCA | 0.915 ± 0.073 |
| GGAGACGAUACUAUACAACCUAGUACCUCA | 0.564 ± 0.055 |
| GGUCUGGAUACUAUACAACCUACUACCUUA | 1.01 ± 0.075 |
| GGAGACCUAUGAUAUGUUGGUUGAACCUCA | < 0.0001 |
| GGUCUGGAUACUAUACAACCUAUCUACCUCA | 0.354 ± 0.025 |
| GGAGACCUAAGUAUACAACCUACAACCUCA | 0.00887 ± 0.0027 |
| CCUCUGGAUACUAAAGAACCUACUACCUCA | 1.56 ± 0.12 |
| GGAGACCAUACUAUACCACCUACUACCUCA | 1.28 ± 0.095 |
| GCUCUGGAUACUAUACAACGUACUACGUCA | 0.762 ± 0.078 |

| Sequence | pre-steady-state target cleavage rate |
| --- | --- |
| GGAGACCUAACUUUACAACCUACAACCUCA | 0.00933 ± 0.0054 |
| GCUCUGGAUUCUAUAGAACCUACUACCUCA | 0.654 ± 0.056 |
| GGAGACCUAAGUAUACAACCUUCUACCUCA | 0.0158 ± 0.0037 |
| GGAGAGCAUACUAUACAACCUACAACCUCA | 0.868 ± 0.066 |
| GGAGACCUAACUAUACAACCUCCUACCUCA | 0.582 ± 0.049 |
| GGAGAGGAAACUAUACAACCUACUACGUCA | 0.371 ± 0.033 |
| GGAGACCUAUGAUUACUAGCUACUACCUCA | < 0.0001 |
| GGAGUGGAUACUAAACAACCUACUACGUCA | 0.343 ± 0.033 |
| GGAGUGGAUAGUAUACAACCUACUUCCUCA | 0.147 ± 0.032 |
| CCUCUGGAUACUAUACAACCUUACUACCUCA | 0.01 ± 0.0033 |
| GGAGACCUUCACUAUACAACCUACUACCUCA | 1.38 ± 0.15 |
| GGAGUGGAUACUAUACAACCUACGUACCUCA | 0.712 ± 0.076 |
| GGACUGGAUACUAUAACAACCUACUACCUCA | 1.49 ± 0.14 |
| CCUCUGGAUACUAUACAACCUACAUGCUCA | 0.739 ± 0.085 |
| GGUCUGGAUACAAUACAACCUUCUACCUCA | 0.626 ± 0.035 |
| GGAGACGAUACUAUACAACCAUCUACCUCA | 0.0561 ± 0.011 |
| GGUCUGGAUAGUAUACAAGCUACUACCUCA | 0.368 ± 0.042 |
| GGAGACCUUACUAUACAACCUUCUACCUCA | 0.374 ± 0.022 |
| GGAGAGGAUACUAUACAACCUACAACCACA | 0.0616 ± 0.022 |
| GGAGACCUAUCUAUACAACCUACUACGACA | 0.206 ± 0.026 |
| GGACUGGAUACUAUACAACGUACUUCCUCA | 0.209 ± 0.034 |
| GGAGUGGAUAGCUAUACAACCUACUACCUCA | 0.695 ± 0.044 |

| Sequence | pre-steady-state target cleavage rate |
| --- | --- |
| GGAGACCUAUGUAUACAACCUACAACGUCA | 0.00265 ± 0.002 |
| GGAGACCUAUGUAUACAACCUACUAUCUCA | 0.00659 ± 0.0019 |
| GGAGACGAUACUAUACAACCUACUACCUCU [g2:g24:cont:t1U] | 1.84 ± 0.12 |
| GGAGACCUAUGAUAUCAAGGAACUACCUCA | < 0.0001 |
| GGAGUGGUUACUAUACUACCUACUACCUCA | 1.33 ± 0.11 |
| GGACUGGAUACUAUACAACCUACCUACCUCA | 1.06 ± 0.094 |
| GGAGACCUAUGUAUACAACCUACUACUUCA | 0.3 ± 0.035 |
| CCUCUGGAUUCUAUACAACCUACAACCUCA | 0.702 ± 0.041 |
| GGAGUGGAUACUAUACAACCUACUAACCUCA | 0.901 ± 0.053 |
| GGAGACGAUUCUAUACAACGUACUACCUCA | 0.555 ± 0.031 |
| GGAGACCUAACUAUACAAGCUUCUACCUCA | 0.0289 ± 0.0062 |
| CCUCUGGAUACUUUACAACCUACUACGUCA | 1.27 ± 0.083 |
| GGAGACCUAUGUAUACAUCCUACUACCACA | 0.0109 ± 0.0035 |
| GGAGUGGUUACUAUACAACCUACUUCCUCA | 0.0202 ± 0.0058 |
| GGAGACCUAACUAUACAACCUACUAGCUGA | 0.0256 ± 0.01 |
| GGAGACCUAACUUUACAACGUACUACCUCA | 0.00883 ± 0.0044 |
| GGAGACCUAUCUAUUACAACCUACUACCUCA | 0.105 ± 0.02 |
| GGUCUGGAAACUAUACAACCUUCUACCUCA | 0.829 ± 0.052 |
| GGAGAGGUUACUAUACUACCUACUACCUCA | 0.776 ± 0.048 |
| GCUCUCGAUACUAUACUACCUACUACCUCA | 1.48 ± 0.088 |
| GGAGACCAUACUUUAGAACCUACUACCUCA | 0.678 ± 0.052 |
| GGAGACCUAUCUUUACAACCUACUACCUGA | 0.101 ± 0.025 |
